# Assay results published in PubChem BioAssay (Tox21).
# Where “and” joins values, the source holds several entries; their conditions need not be identical. Equal values may be shown once. Inconclusive means that the source gave no clear call. Such entries were picked first, then a sample of the others. For some of these results: A potency beside an inconclusive call is a rough fit, not a confirmed value. Some structures have more than one record in an assay (separate samples or runs), and their calls can disagree. Calls of active or inactive are those of the source. Unless noted, the call rests on the fitted dose curve; in most records, active means well fitted curve in the direction sought with a large enough effect in the repeat runs; inconclusive means weak or mixed curves; inactive means no such curve, though single readings can be large; an effect the other way counts as inactive or inconclusive.
# Tests used:
# [1] = target: Progesterone receptor (Homo sapiens) (UniProt P06401); assay: qHTS assay to identify small molecule antagonists of the progesterone receptor (PR) signaling pathway (AID 1346795; active means well fitted inhibition curve with a large enough effect in the signal ratio in the repeat runs, not every such curve was filed as active; inconclusive means weak or mixed curves; the % refers to the signal ratio); conditions: PR-UAS-bla HEK293T, beta-lactamase FRET ratio, 16 h; activity change, negative = inhibition: at 92.4 µM (top of the series) unless noted
# Outline: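 PR-UAS-bla HEK293T cells with beta-lactamase reporter under UAS control, in 2% charcoal-stripped FBS, treated with compounds plus 1 nM promegestone (R5020, final) for 16 hr at 37C. Read-out: FRET beta-lactamase substrate fluorescence after 2 hr at room temperature.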
# [2] = target: Nuclear receptor subfamily 1 group I member 2 (Homo sapiens) (UniProt O75469); assay: CYP3A4 induction through human pregnane X receptor (PXR) by small molecules, qHTS assay (AID 1346984); further: nearly all actives have a fitted effect of over 40% in size
# Outline: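 qHTS, concentration-response format: HepG2 DPX-2 line, PXR/CYP3A4-luc. Exposure 24 h, 37C. Substrate Luciferin-IPA 3uM final, 3 h. Detection One-Glo, 30 min RT.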
# [3] = qHTS assay to identify small molecule antagonists of the progesterone receptor (PR) signaling pathway - cell viability counter screen (AID 1346798); further: nearly all actives have a fitted effect of over 50% in size; further: potency means the concentration at half of the fitted maximal effect
# Outline: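 PR-UAS-bla HEK293T cells, 3,000/well in 2% charcoal-stripped FBS medium, dosed with compounds plus R5020 agonist and incubated 16 h at 37C. Viability then measured in the same wells by CellTiter-Glo luminescence after 30 min at RT.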
# [4] = target: Cytochrome P450 2D6 (Homo sapiens) (UniProt P10635); assay: Cytochrome P450 Family 2 Subfamily D Member 6 (CYP2D6) small molecule antagonists: luciferase reporter qHTS assay (AID 1671196); further: nearly all actives have a fitted effect of over 50% in size; further: potency means the concentration at half of the fitted maximal effect
# Outline: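 Luminescence (RLU), read 20 min after detection reagent, indicated CYP2D6 conversion of proluciferin to luciferin during a 1 h NADPH-dependent reaction at room temperature.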
# [5] = target: Cytochrome P450 2C9 (Homo sapiens) (UniProt P11712); assay: Cytochrome P450 Family 2 Subfamily C Member 9 (CYP2C9) small molecule antagonists: luciferase reporter qHTS assay (AID 1671198); further: nearly all actives have a fitted effect of over 50% in size; further: potency means the concentration at half of the fitted maximal effect
# Outline: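 CYP2C9 activity was measured with a P450-Glo proluciferin substrate. Enzyme–substrate mix was held with compound for 10 min at room temperature, then NADPH regeneration solution was added for 1 h at 37C. Luciferin product was read as luminescence.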
# [6] = target: Cytochrome P450 2C19 (Homo sapiens) (UniProt P33261); assay: Cytochrome P450 Family 2 Subfamily C Member 19 (CYP2C19) small molecule antagonists: luciferase reporter qHTS assay (AID 1671197); further: nearly all actives have a fitted effect of over 65% in size; further: potency means the concentration at half of the fitted maximal effect
# Outline: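 Luminescent readout of CYP2C19 activity: luciferin product detected 20 min after adding detection reagent. Before that, compound and enzyme-substrate mix preincubated 10 min at room temperature; NADPH-regenerating system started a 1 h, 37C reaction. Ketoconazole as positive control.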
# On the % scale 0 is the no-effect control and ±100 the full control effect; tags describe the fitted curve by direction and shape.
# UniProt P33261, sequence (P33261 whole entry, looked up): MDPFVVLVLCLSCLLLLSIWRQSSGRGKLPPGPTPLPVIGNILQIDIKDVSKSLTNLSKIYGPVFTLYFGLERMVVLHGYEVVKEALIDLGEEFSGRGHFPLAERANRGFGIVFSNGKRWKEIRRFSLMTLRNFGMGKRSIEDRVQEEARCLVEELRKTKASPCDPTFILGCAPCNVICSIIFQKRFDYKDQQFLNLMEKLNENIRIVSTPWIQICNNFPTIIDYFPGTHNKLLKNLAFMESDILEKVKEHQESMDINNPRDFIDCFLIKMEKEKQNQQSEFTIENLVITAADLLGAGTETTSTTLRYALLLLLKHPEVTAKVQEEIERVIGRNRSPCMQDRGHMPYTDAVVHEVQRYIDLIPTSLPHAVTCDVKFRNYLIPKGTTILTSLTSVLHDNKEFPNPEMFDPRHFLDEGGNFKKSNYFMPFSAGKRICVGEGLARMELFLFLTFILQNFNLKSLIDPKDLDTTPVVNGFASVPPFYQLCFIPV
# UniProt P06401, sequence (P06401 whole entry, looked up): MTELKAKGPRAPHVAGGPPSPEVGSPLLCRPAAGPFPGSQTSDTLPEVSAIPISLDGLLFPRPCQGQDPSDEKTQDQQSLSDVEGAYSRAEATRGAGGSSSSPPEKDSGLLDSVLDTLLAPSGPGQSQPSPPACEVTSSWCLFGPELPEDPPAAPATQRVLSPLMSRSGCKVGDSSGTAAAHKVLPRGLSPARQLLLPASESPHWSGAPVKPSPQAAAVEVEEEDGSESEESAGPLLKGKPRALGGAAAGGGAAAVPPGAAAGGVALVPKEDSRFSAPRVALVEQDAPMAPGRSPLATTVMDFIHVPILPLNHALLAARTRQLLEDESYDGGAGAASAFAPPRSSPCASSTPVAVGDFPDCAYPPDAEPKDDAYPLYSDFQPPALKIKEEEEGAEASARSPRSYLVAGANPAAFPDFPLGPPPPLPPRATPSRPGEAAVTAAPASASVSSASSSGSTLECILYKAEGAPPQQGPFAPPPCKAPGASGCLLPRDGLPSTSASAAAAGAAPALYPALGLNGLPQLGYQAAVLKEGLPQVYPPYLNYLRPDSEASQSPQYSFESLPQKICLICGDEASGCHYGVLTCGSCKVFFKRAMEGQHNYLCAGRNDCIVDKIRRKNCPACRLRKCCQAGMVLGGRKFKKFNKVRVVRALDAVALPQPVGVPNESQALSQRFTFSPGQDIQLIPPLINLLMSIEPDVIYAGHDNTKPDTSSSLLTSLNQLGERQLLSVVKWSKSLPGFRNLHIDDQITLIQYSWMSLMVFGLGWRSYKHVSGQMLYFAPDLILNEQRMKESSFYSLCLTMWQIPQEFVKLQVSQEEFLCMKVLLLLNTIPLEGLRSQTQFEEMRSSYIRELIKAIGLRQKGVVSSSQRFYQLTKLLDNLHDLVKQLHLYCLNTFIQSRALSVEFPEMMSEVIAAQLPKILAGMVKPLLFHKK
# UniProt P10635, sequence (P10635 whole entry, looked up): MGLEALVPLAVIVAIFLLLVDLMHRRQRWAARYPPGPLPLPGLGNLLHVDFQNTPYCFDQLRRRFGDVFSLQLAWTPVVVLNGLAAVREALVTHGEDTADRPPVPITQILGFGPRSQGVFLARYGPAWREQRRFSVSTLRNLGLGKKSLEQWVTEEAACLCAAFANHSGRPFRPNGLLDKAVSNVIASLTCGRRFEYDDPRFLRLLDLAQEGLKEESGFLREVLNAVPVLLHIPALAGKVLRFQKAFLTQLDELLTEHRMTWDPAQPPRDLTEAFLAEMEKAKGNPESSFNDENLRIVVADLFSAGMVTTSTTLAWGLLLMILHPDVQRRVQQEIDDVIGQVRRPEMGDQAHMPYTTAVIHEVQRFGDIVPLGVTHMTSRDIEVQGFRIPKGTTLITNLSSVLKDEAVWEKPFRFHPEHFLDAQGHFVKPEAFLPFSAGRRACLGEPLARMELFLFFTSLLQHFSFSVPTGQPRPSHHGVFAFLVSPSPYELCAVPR
# UniProt P11712, sequence (P11712 whole entry, looked up): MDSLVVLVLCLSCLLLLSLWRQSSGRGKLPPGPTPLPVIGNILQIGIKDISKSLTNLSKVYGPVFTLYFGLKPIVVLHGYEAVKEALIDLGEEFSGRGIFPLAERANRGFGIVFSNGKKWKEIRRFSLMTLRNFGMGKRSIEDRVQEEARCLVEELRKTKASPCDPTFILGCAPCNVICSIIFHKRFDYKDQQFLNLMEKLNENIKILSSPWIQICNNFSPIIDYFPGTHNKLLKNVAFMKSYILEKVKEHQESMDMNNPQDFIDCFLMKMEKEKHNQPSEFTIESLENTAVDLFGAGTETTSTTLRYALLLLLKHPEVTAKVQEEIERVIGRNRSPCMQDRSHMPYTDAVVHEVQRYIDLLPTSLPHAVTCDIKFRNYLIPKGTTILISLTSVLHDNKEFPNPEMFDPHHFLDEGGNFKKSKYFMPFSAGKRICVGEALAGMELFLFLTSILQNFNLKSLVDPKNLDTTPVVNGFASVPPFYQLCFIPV
smiles,measurement,setting,value
Nc1ccncc1N,Potency,[1],inactive
same,Potency,[2],inactive
CC1(C)[C@@H](OC(=O)CCC(=O)O)CC[C@]2(C)[C@H]3C(=O)C=C4[C@@H]5C[C@@](C)(C(=O)O)CC[C@]5(C)CC[C@@]4(C)[C@]3(C)CC[C@@H]12,Potency,[3],inconclusive: 33.5 µM
COCC(C)O (configuration not stated),Potency,[1],inactive
same,Potency,[4],"inconclusive: 36.4 µM [inhibitor, partial curve]"
CC(C)(C)CC(C)(C)c1ccc(Nc2ccc(C(C)(C)CC(C)(C)C)cc2)cc1,"activity change, negative = inhibition",[1],inconclusive: 0.413% [at 8.39 µM]
same,Potency,[4],"inconclusive: 2.78 µM [inhibitor, partial curve, poor fit]"
same,Potency,[5],"inconclusive: 2.78 µM [inhibitor, partial curve, poor fit]"
C=CCOC(=O)COCCC(C)C,Potency,[1],inactive
same,Potency,[5],inactive
CC(C)=O,Potency,[3],inactive
CCCCOC(=O)CCCCCCCC(=O)OCCCC,Potency,[1],inactive
same,Potency,[5],active: 44.8 µM
O=C(O)CN1C(=O)c2cccc3cccc(c23)C1=O,Potency,[3],inactive
NC(=O)C(c1ccccc1)(c1ccccc1)[C@@H]1CCN(CCc2ccc3c(c2)CCO3)C1,"activity change, negative = inhibition",[1],inconclusive: -31.1% [at 42.5 µM]
same,Potency,[6],inactive
CC(=O)CC/C=C(\C)CC/C=C(\C)CC/C=C(\C)CCC=C(C)C,Potency,[1],inactive
same,Potency,[6],"inconclusive: 38.9 µM [inhibitor, single point]"
NCCCC[C@H](N[C@@H](CCc1ccccc1)C(=O)O)C(=O)N1CCC[C@H]1C(=O)O,Potency,[3],inactive
COc1nc(C)nc(NC(=O)NS(=O)(=O)c2ccccc2OCCCl)n1,Potency,[3],inactive
CCCC[P+](C)(CCCC)CCCC,Potency,[3],inactive
CCOC(=O)C(C)(C)Oc1ccc(Cl)cc1,Potency,[3],inactive
CC(C)C[P+](C)(CC(C)C)CC(C)C,"activity change, negative = inhibition",[1],inconclusive: 9.01%
same,Potency,[6],"inconclusive: 71.4 µM [inhibitor, single point]"
OCc1ccccc1O,Potency,[3],"inconclusive: 1.33 µM [cytotoxic, full curve, poor fit]"
CCOc1ccc(NC(=O)CC(C)O)cc1 (configuration not stated),"activity change, negative = inhibition",[1],inconclusive: 9.6%
same,Potency,[6],"inconclusive: 43.6 µM [inhibitor, single point]"
CC(C)c1ccc2cc(C(C)C)ccc2c1,Potency,[1],inactive
same,Potency,[6],"inconclusive: 89.4 µM [inhibitor, single point]"
O=C1CCCCCCCCCCCCCCCO1,"activity change, negative = inhibition",[1],inconclusive: 3.41%
same,Potency,[6],inactive
COc1cc(S(=O)(=O)O)c(C)cc1N=Nc1c(O)ccc2cc(S(=O)(=O)O)ccc12,"activity change, negative = inhibition",[1],inconclusive: 12.9%
same,Potency,[5],active: 39.9 µM
CCCCN1CCCC1C(=O)Nc1c(C)cc(C)cc1C (configuration not stated),"activity change, negative = inhibition",[1],inconclusive: -43.5% [at 42.5 µM]
same,Potency,[6],"inconclusive: 11 µM [inhibitor, single point]"
CC(=O)[O][Al][O]C(C)=O,Potency,[3],inactive
C=C(C)[C@H]1CC=C(C)C(=O)C1,Potency,[3],"inconclusive: 62.3 µM [cytotoxic, single point]"
O=[N+]([O-])c1cccc(Cl)c1,Potency,[1],inactive
same,Potency,[6],"inconclusive: 69.8 µM [inhibitor, partial curve]"
same,Potency,[5],inactive
O=C(O)CCCc1ccccc1,Potency,[3],"inconclusive: 33.5 µM [rising, single point]"
CCC(CO)(CO)[N+](=O)[O-],Potency,[1],inactive
same,Potency,[5],inactive
CCCCOCCO,"activity change, negative = inhibition",[1],inconclusive: 7.96%
same,Potency,[6],"inconclusive: 25.2 µM [inhibitor, partial curve]"
same,Potency,[5],"inconclusive: 39.9 µM [inhibitor, partial curve, poor fit]"
CCCCCCCCCCCCCC(=O)OCC(O)CO (configuration not stated),Potency,[3],inactive
CC(C)=CC(=O)C=C(C)C,Potency,[3],"inconclusive: 2.42 µM [cytotoxic, single point]"
Nc1c2c(nc3ccccc13)CCCC2O (configuration not stated),Potency,[1],inactive
same,Potency,[4],"inconclusive: 17.4 µM [inhibitor, partial curve]"
C=CC(=O)NC(C)C,Potency,[3],inactive
NC1CCCCC1,"activity change, negative = inhibition",[1],inconclusive: -26.5%
same,Potency,[4],"inconclusive: 63.7 µM [inhibitor, partial curve, poor fit]"
same,Potency,[6],"inconclusive: 80.6 µM [inhibitor, single point] and inconclusive: 710 nM [inhibitor, single point]"
same,Potency,[5],"inconclusive: 63.7 µM [inhibitor, partial curve]"
Oc1ccc2ccccc2c1,Potency,[3],"inconclusive: 78.8 µM [cytotoxic, partial curve, poor fit]"
C=C(C)C(=O)OCCOCCOC(=O)C(=C)C,Potency,[1],inactive
same,Potency,[6],active: 8.94 µM
same,Potency,[5],"inconclusive: 35.6 µM [inhibitor, partial curve, poor fit]"
C1=CCC2CC=CC2C1 (configuration not stated),Potency,[3],"inconclusive: 27.3 µM [cytotoxic, partial curve, poor fit]"
NC(N)=NCCN1CCCCCCC1,"activity change, negative = cytotoxicity",[3],inactive: -0.514% [at 0.348 µM]
O=C(Nc1ccc(C(=O)O)c(O)c1)c1ccccc1,Potency,[1],inactive
same,Potency,[6],inconclusive: 38.9 µM [inhibitor]
same,Potency,[5],inconclusive: 17.4 µM [inhibitor]
CC(C)(C)OC(=O)N1C[C@@H](F)C[C@H]1C(=O)O,Potency,[1],inactive
same,Potency,[4],inactive
same,Potency,[5],"inconclusive: 82.3 µM [inhibitor, partial curve, poor fit]"
